According to PubChem BioAssay AID602332 (National Center for Advancing Translational Sciences (NCATS), 2012):
The campaign covered roughly 420,000 compounds. About 75 (0.02%) were called active. This list was built around the results that the source calls inconclusive (neither active nor inactive); the mix of calls is not that of the screen. The call rests on the fitted dose curve; in most records, active means well fitted activation curve with a large enough effect; inconclusive means small, poorly fitted or top-dose-only effect; inactive means no such curve, though single readings can be large or run the other way. Potencies of inconclusive entries are doubtful fits and often do not repeat.

Assay: qHTS for Inducers of the Endoplasmic Reticulum Stress Response (ERSR) in Human Glioma: qHTS; further: nearly all actives have a fitted effect of over 35% in size; on activation: % of control where 0% means no effect
Settings: U87-MG GRP78 promoter luciferase reporter, 16 h; activation: stronger effect = higher value
Procedure, shortened: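 Stably transfected U87-MG glioma cells carrying a GRP78-based luciferase sensor; 16 h compound incubation. Luminescence end-point read 10 min after Bright-Glo addition at room temperature.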
Potency means the concentration at half of the fitted maximal effect; tags describe the fitted curve by direction and shape.

Structure (SMILES) | Potency | activation
NC(=O)c1c(NC(=O)c2ccccc2)sc2c1CCC2 | inconclusive: 2.24 µM [activator, full curve, poor fit] | 
Cc1c(C(=O)NCc2cccc(Cl)c2)sc(=O)n1Cc1cccc(F)c1 | inconclusive: 44.7 µM [activator, partial curve, poor fit] | 
CCCCC(=O)/C=C/n1c(=S)oc2ccccc21 |  | inactive: -4.04%
Fc1cccc(NC(=S)N2CCc3ccccc32)c1 | inconclusive: 17.8 µM [activator, partial curve, poor fit] | 
CCCn1nc([N+](=O)[O-])c(C(C#N)c2nc3ccccc3o2)c(Cl)c1=O (configuration not stated) |  | inactive: -6.41%
CCOc1cc(CNc2ccc(O)cc2)ccc1OCc1ccc(Cl)cc1 | inconclusive: 44.7 µM [activator, partial curve, poor fit] | 
Nc1ccc(N=Nc2ccccc2)cc1[N+](=O)[O-] | inconclusive: 10 µM [activator, single point] | 
O=C(CSc1cccc[n+]1[O-])c1ccccc1Br | inconclusive: 2.24 µM [activator, full curve, poor fit] | 
CS(=O)(=O)c1ccccc1-c1nnc(NC(=O)CCS(=O)(=O)c2ccc(Cl)cc2)o1 |  | inactive: -3.4%
Cc1ccc(C(=O)Nc2nc3ccc(S(C)(=O)=O)cc3s2)s1 | inconclusive: 6.31 µM [activator, partial curve, poor fit] | 
O=C(Nc1nnc(SCc2ccccc2F)s1)c1ccco1 |  | inactive: -1.45%
COc1ccc(-c2cc(NC=O)c3ncc(-c4cccc(C(=O)N(C)C)c4)n3c2)cn1 | inconclusive: 14.1 µM [activator, single point] | 
CCC(=O)N1CCN(c2ccc(Cl)cc2NC(=O)Cc2ccccc2)CC1 | inconclusive: 50.1 µM [activator, single point] | 
CCOc1cc(/C=C2\SC(=N)N(c3nccs3)C2=O)ccc1OCCN1CCOCC1 | inconclusive: 44.7 µM [activator, single point] | 
O=Nc1c(-c2c(O)[nH]c3cc(Br)ccc23)[nH]c2ccccc12 | inconclusive: 0.414 µM [activator, full curve, poor fit] | 
CCOc1c(Cl)cc(CNCc2ccncc2)cc1OC |  | inactive: 1.25%
Cc1c(C(=O)NCCCN2CCCC2=O)cnn1-c1ncc2c(n1)-c1ccccc1CC2 | inconclusive: 35.5 µM [activator, partial curve, poor fit] | 
CC(C)(C)c1ccc(-c2noc(CCC(=O)Nc3cccnc3)n2)cc1 |  | inactive: -8.94%
CCn1c(SCC(=O)N2CCC(C)CC2)nc2c(c1=O)SCC2 | inconclusive: 2 µM [activator, full curve, poor fit] | 
C=CCNC(=O)C1CC=CCC1C(=O)O (configuration not stated) | inconclusive: 25.1 µM [activator, single point] | 
CC(=O)Oc1ccc(/C=N\NC(=O)c2cc3c(ccc4ccccc43)o2)cc1 |  | inactive: -0.563%

Structure (SMILES) | Potency | activation
O=C(C[N+]1(CCO)CCOCC1)c1ccc(F)c2ccccc12 | inconclusive: 5.62 µM [activator, partial curve, poor fit] | 
Cn1nnc2c(N3CCN(c4ccccc4F)CC3)ncnc21 |  | inactive: -1.72%
O=C(CSc1ccccc1)NCCc1ccccc1 | inconclusive: 10 µM [activator, single point] | 
Cc1nc2c(OCCC3CCCCC3)cccn2c1N(C)C(=O)CCC1CCCC1 | inconclusive: 50.1 µM [activator, single point] | 
Oc1ccccc1C1C=C(c2ccc3c(c2)OCO3)NC(c2ccc(Br)cc2)N1 (configuration not stated) | inconclusive: 44.7 µM [activator, partial curve, poor fit] | 
O=C(Cc1ccc(Cl)cc1)NC(=S)Nc1ccccc1O | inconclusive: 44.7 µM [activator, partial curve, poor fit] | 
CC1=NN(c2ccc(F)cc2)C(=O)C1C(c1cccc(O)c1)c1c(C)[nH]n(-c2ccc(F)cc2)c1=O (configuration not stated) | inconclusive: 50.1 µM [activator, single point] | 
Cc1ccc(-c2onc3ccc(Br)cc23)cc1 | inconclusive: 50.1 µM [activator, single point] | 
COC(=O)Nc1ccc2c(c1)N(C(=O)CCCl)c1ccccc1S2 | inconclusive: 39.8 µM [activator, partial curve, poor fit] | 
CCCCCOc1ccc(C(=O)CCN2CCOCC2)cc1 | inconclusive: 44.7 µM [activator, partial curve, poor fit] | 
CC(C)(C)OC(=O)N[C@H](Cc1ccccc1)C(=O)N1CCC[C@@H]1C(=O)O |  | inactive: -3.19%
CCOC(=O)C(C)NC(=O)CCc1nnc2ccc(N3CCC(C)CC3)nn12 (configuration not stated) | inconclusive: 50.1 µM [activator, single point] | 
COc1cccc(/C=N/Nc2cc(N3CCOCC3)ncn2)c1O |  | inactive: -0.75%
COc1cc2cc3c(N)c(C(=O)NCc4ccco4)sc3nc2cc1OC | inconclusive: 44.7 µM [activator, partial curve, poor fit] | 
S=c1[nH]nc(COc2ccccc2)n1/N=C/C(Cl)=C/c1ccccc1 | inconclusive: 14.1 µM [activator, single point] | 
O=C(NCc1ccccn1)c1cnn(-c2ncc3c(n2)-c2ccccc2CC3)c1C1CC1 |  | inactive: -2.77%
CCc1ccc(OCC(=O)Nc2c(C(=O)c3ccc(Br)cc3)oc3ccccc23)cc1 |  | inactive: -1.67%
NC(=O)c1c(NC(=O)C(=O)N2CCOCC2)sc2c1CCCC2 | inconclusive: 50.1 µM [activator, single point] | 
COc1ccc(-c2cnc3c(NC(C)=O)cc(-c4ccc(C(=O)NC5CC5)cc4)cn23)cc1OC | inconclusive: 44.7 µM [activator, single point] | 
O=C(/C=C/c1ccc(Br)cc1)NC(=S)NNC(=O)c1ccco1 | inconclusive: 50.1 µM [activator, partial curve, poor fit] | 
CS(=O)(=O)c1ccccc1C(=O)Nc1nc2ccccc2[nH]1 | inconclusive: 50.1 µM [activator, single point] | 
